Measurements: patent publication US20180194862A1 (AbbVie / Abbott, published 2018)

Assays:
Experiment in all cases: SPR
[1] = target: T1, human mesothelin (human, UniProt Q13421 296-580, limits assumed)
T1 construct: also called Human MSLN

[2] = target: T2, soluble form of the extracellular domain of human CD40 (Creative BioMart) (human, UniProt P25942 fragment)
T2 construct: Bought

[3] = target: T3, soluble form of the extracellular domain of cynomolgus (cyno) CD40 (Creative BioMart) (cynomolgus, UniProt G7PG38 21-193)
T3 construct: extracellular domain; also called Cynomolgus CD40

T1 sequence (Q13421 other isoform, or with tags, fused parts or gaps limits assumed): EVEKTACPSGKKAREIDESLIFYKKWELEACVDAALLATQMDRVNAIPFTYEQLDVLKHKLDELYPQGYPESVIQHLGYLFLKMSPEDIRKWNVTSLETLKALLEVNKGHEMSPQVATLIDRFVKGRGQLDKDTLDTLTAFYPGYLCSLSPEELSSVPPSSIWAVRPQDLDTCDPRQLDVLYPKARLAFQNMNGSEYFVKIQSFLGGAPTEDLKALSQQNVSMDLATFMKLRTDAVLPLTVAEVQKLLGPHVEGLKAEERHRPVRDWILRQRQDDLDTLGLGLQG
T2 sequence (P25942 21-193 limits assumed): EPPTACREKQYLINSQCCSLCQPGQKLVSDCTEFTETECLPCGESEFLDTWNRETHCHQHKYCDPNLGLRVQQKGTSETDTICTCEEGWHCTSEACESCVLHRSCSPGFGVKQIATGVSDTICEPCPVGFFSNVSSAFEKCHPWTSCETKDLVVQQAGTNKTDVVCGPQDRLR

B1: CF19 (bispecific antibody, human IgG1, kappa)
heavy: EVQLLESGGGLVQPGGSLRLSCAASGFTFSSYAMSWVRQAPGKGLEWVSAISGGGGRTYYADSVKGRFTISRDNSKNTLYLQMNSLRAEDTAVYYCAREEMAFRAYRFDIWGQGTLVTVSSASTKGPSVFPLAPSSKSTSGGTAALGCLVKDYFPEPVTVSWNSGALTSGVHTFPAVLQSSGLYSLSSVVTVPSSSLGTQTYICNVNHKPSNTKVDKKV[human IgG1 Fc with V273E (EU numbers) not written out]GGGGSGGGSGGGSGGGGSEVQLVESGGGLVQPGGSLRLSCAASGYSITSNYYWNWVRQAPGKGLEWMGYIRYDGSNNYNPSLKNRITISRDTSKNTFYLQMNSLRAEDTAVYYCARLDYWGQGTLVTVSSGGGGSGGGGSGGGGSGGGGSGGGGSDAQMTQSPSSLSASVGDRVTITCRSSQSLENTNGNTFLNWFQQKPGKAPKLLIYRVSNRFSGVPSRFSGSGSGTDFTLTISSLQPEDFATYYCLQVTHVPFTFGQGTKLEIKR
light: [about 200 residues not written out]
notes: IgG-scFv: MSLN76923 Fab
With B1 the Kd [1] was 28 nM, the koff [1] was 0.0081 s⁻¹ and the kon [1] was 300000 M⁻¹ s⁻¹. For the same binder, the Kd [2] was 40 nM, the koff [2] was 0.017 s⁻¹ and the kon [2] was 430000 M⁻¹ s⁻¹. It also gave a Kd [3] of 22 nM, a koff [3] of 0.018 s⁻¹ and a kon [3] of 810000 M⁻¹ s⁻¹.
